# From the supplement of paper PMC12217912
# Some of the results follow. The full chains were built here from the parent and the listed change. Values near 0.05 are background.
# B1: TEV protease; numbered along this chain (parent)
# chain: MGESLFKGPRDYNPISSSICHLTNESDGHTTSLYGIGFGPFIITNKHLFRRNNGTLVVQSLHGVFKVKDTTTLQQHLVDGRDMIIIRMPKDFPPFPQKLKFREPQREERICLVTTNFQTKSMSSMVSDTSCTFPSGDGIFWKHWIQTKDGQCGSPLVSTRDGFIVGIHSASNFTNTNNYFTSVPKNFMELLTNQEAQQWVSGWRLNADSVLWGGHKVFMVKPEEPFQPVKEATQL
# Variants of: B1
# Experiment: raw area under fraction-flipped curve 0-4 h after induction (AUC4h, not background-subtracted), DNA-recorder readout of cleavage of the substrate (dimensionless); higher = more cleavage of the substrate by the protease variant
# Conditions: temperature: 34 °C; time window: 0-4 h after rhamnose induction
# Experimental: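 In vivo DNA recorder in E. coli TOP10(DE3) ΔrhaA at 34 °C. Each TEVp single-site mutant (parent TEVp 0) is paired with a single-site variant of the 7-mer TEVs (canonical ENLYFQ|S). The substrate sits between flexible linkers in a Bxb1-sfGFP-TEVs-SsrA fusion, so cleavage stabilises Bxb1 and speeds flipping of a recombination array, read by NGS. The value is the raw area under the fraction-flipped curve over 0-4 h after rhamnose induction (AUC4h), with ≥20 reads per time point. It is not background-subtracted; inactive controls average about 0.047.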
# 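Further: Bxb1 expression induced with 0.2% (w/v) L-rhamnose at OD600 near 0.5, cultures sampled hourly, flipped fraction per protease–substrate barcode pair counted by paired-end Illumina sequencing.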
Variant,area with substrate CNLYFQS,area with substrate DNLYFQS,area with substrate FNLYFQS,area with substrate GNLYFQS,area with substrate HNLYFQS,area with substrate INLYFQS,area with substrate KNLYFQS,area with substrate LNLYFQS,area with substrate MNLYFQS,area with substrate NNLYFQS,area with substrate PNLYFQS,area with substrate QNLYFQS,area with substrate RNLYFQS,area with substrate TNLYFQS,area with substrate VNLYFQS,area with substrate WNLYFQS,area with substrate SNLYFQS,area with substrate YNLYFQS
S60H,0.08,0.0595,0.0671,0.0692,0.0568,0.0616,0.0831,0.0642,0.0452,0.0706,0.0676,0.0642,0.0556,0.0662,0.0564,0.0677,,
L73I,0.0708,0.13,0.052,0.0697,0.0646,,0.0393,,,0.0693,0.0744,,0.0664,0.0525,,0.0793,0.0597,0.0733
Q75R,0.0577,0.0573,,0.0578,0.0564,0.0365,0.0533,,0.083,,0.0638,,,,0.0456,0.0615,0.0703,0.0454
Q75F,0.0613,0.0737,,,0.0582,0.0357,0.0477,0.0609,0.0717,0.0565,0.069,0.0586,,0.0564,,0.0504,,0.0538
Q75K,0.0602,0.0603,0.0587,0.066,0.0503,,,0.0615,,0.0651,0.0647,,,0.0638,,0.0529,0.0606,0.065
L77H,0.0598,0.0947,,0.0816,0.0601,0.0627,0.0588,0.056,0.0529,,0.0857,,,0.0642,,0.0694,0.0633,0.0602
L77I,0.0664,0.0721,,,0.0506,0.0735,0.0651,0.0403,0.0565,,0.058,0.0608,,0.0576,,0.0704,,
L77Y,0.0476,0.0665,0.0603,0.0309,0.0566,0.0599,0.0642,,0.0603,,0.0603,0.0608,,0.052,,,0.057,0.0505
F65G,0.0538,0.0666,0.0489,0.0594,0.0731,,0.0698,,0.0483,0.0601,0.0679,,,0.0634,,0.0553,,
F65L,0.0546,0.0868,,0.0654,0.0604,,,0.0472,0.0842,,,,,,0.0739,0.055,0.0651,0.045
D82N,0.0611,0.0526,,0.0648,0.0585,0.0477,0.0634,0.0614,0.0665,0.0546,0.0696,0.0583,0.0564,0.0555,0.061,0.0611,0.0531,
D82K,0.0477,0.0379,0.0647,0.0481,0.0523,0.0479,,,,0.0593,,,,0.0463,,0.0606,0.053,
G54Q,0.0599,0.0527,0.0579,0.0656,0.0514,0.0551,0.0484,0.0572,0.0583,0.0114,0.0482,,0.0478,0.062,0.0545,0.0584,0.0494,0.0418
G54V,0.0601,0.0667,0.0523,,0.0541,0.0594,0.0602,0.0612,,0.0576,0.0649,,,0.065,,0.0527,0.0483,0.0589
M88A,0.0829,0.0649,0.0489,,0.0627,0.0641,,0.067,,,0.0624,0.0836,,,,0.0563,,0.0396
M83D,0.0463,0.0514,0.0503,0.0904,0.054,0.0512,0.0441,0.0448,0.0479,0.0572,,,,0.0549,0.0362,0.0482,0.0616,0
R81C,0.0649,0.0666,,0.0562,0.0605,0.0521,0.055,0.0895,,0.0519,,,0.0438,0.0657,,0.0553,0.0629,0.0537
N53S,0.0647,0.0864,0.0512,,0.0688,0.0564,0.0624,0.0632,,0.0828,0.0623,,0.0804,0.0601,,0.0563,0.0681,0.0757
N53M,0.0668,0.0537,0.0622,0.0783,0.056,0.0597,,0.0592,0.0635,0.0515,0.077,,,0.0148,0.0638,0.0496,0.0652,0.0629
N53C,0.0539,0.0787,,0.0528,0.0757,,0.052,0.0799,,,0.0644,0.0626,,0.0652,0.0775,0.0616,0.0652,0.0515
N53V,0.0668,0.0657,,,0.0595,,,,,0.0835,0.0727,0.0464,,0.0539,,0.0542,0.063,0.0585
K66L,0.0633,0.0838,,0.0721,0.0625,,0.0741,0.0569,0.06,0.058,0.0675,0.0603,0.0699,,,0.0657,0.0674,0.0418
N52P,0.0604,0.0501,,,0.0627,0.0552,,0.0578,,,0.0481,,,0.0634,,,0.059,0.0533
N52V,0.0727,0.0269,0.0466,0.0547,0.0637,,0.068,0.0686,0.054,0.0544,0.0599,0.0692,0.0556,0.0632,0.063,0.0594,0.0655,0.0655
N52C,0.0469,0.0558,0.033,0.0579,0.0627,,0.0589,0.0653,0.0588,,0.0518,0.0693,0.0452,0.0624,,0.0613,0.0455,0.0575
T70E,0.0718,0.0663,,,,0.0606,0.0571,,0.0525,0.054,0.0521,,,,,,0.0554,0.0356
T70I,0.059,0.0691,0.0649,0.0487,0.0615,0.0617,,,0.0767,0.0616,0.0584,,0.0582,0.0788,0.0632,0.0614,0.0597,0.0654
